Our source for the TetR repression strength values is a collection of fitness landscapes (doi:10.1038/s41467-024-54723-y).

The full ranking holds about 18,000 sequences; the median of “TetR repression strength (sort-seq, GFP reporter)” is about 0.23, and the highest 2% start at about 0.68. This is one part of the list.

Sequence of UniProt P04483 (P04483 whole entry): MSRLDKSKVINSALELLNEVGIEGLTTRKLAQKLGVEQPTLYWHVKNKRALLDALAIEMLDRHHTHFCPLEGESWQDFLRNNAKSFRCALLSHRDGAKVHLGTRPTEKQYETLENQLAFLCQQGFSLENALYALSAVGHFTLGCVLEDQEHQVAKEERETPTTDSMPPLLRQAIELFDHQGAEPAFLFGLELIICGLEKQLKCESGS

The target in this assay is TetR (class B, Tn10) (UniProt P04483). The assay can be described thus: TetR repression strength (sort-seq, GFP reporter) (relative to tetO2 = 1); higher = stronger repression. Conditions: E. coli. The gist of the method:
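Repression strength was calculated by subtracting the read-weighted mean bin from the top bin index plus one and dividing by the unaltered operator's value. The plasmid library was low-copy in E. coli SIG10-MAX, with eight randomized operator positions between a constitutive promoter and sfGFP and constitutive TetR. Cultures grew 5 h at 37 °C in LB containing 50 µg/mL chloramphenicol before 10^6 cells were sorted by FACS into 13 fluorescence bins, each sequenced on Illumina. Three independent transformations were averaged for members having ≥30 reads in all replicates and a CV ≤0.5.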
On to TCCCGTCAAGTTAAGGAGA, for which the TetR repression strength was 0.279.

Sequence TCCCGGTTAGTACATGAGA showed a TetR repression strength of 0.194.

In the case of TCCCGAGCAGTCGAGGAGA, the TetR repression strength is 0.143.

As to TCCCCTGCAGTGCATGAGA, the TetR repression strength turned out to be 0.0312.

The sequence TCCCTACTAGTGGGCGAGA yielded a TetR repression strength of 0.362.

As for TCCCACTGAGTTGGAGAGA, the TetR repression strength was found to be 0.16.

The sequence TCCCAAACAGTGTATGAGA displayed a TetR repression strength of 0.0683.

TCCCGCCCAGTACTAGAGA gave a TetR repression strength of 0.207.

Turning to TCCCCCAAAGTTTTAGAGA, the TetR repression strength amounted to 0.263.

In turn, TCCCAACTAGTCACAGAGA gave a TetR repression strength of 0.207.

Sequence TCCCTGTGAGTGCCTGAGA displayed a TetR repression strength of 0.088.

Turning to TCCCAGAGAGTAGGCGAGA, the TetR repression strength was 0.466.

Regarding TCCCGTATAGTGACCGAGA, the TetR repression strength was determined as 0.254.

For the sequence TCCCTGGTAGTCATGGAGA, the TetR repression strength was determined as 0.341.

As to TCCCACGCAGTCTAGGAGA, the TetR repression strength turned out to be 0.321.

In turn, TCCCCGGGAGTGCGGGAGA yielded a TetR repression strength of 0.125.

As for TCCCGACCAGTGCAGGAGA, the TetR repression strength was 0.805.

Regarding TCCCGTATAGTGAGCGAGA, the TetR repression strength was determined as 0.081.

Turning to TCCCGCGGAGTACGAGAGA, the TetR repression strength was found to be 0.0554.

In turn, TCCCAGTCAGTCGTGGAGA yielded a TetR repression strength of 0.332.

Sequence TCCCAGTTAGTTCGAGAGA came in with a TetR repression strength of 0.263.

In turn, TCCCGAGAAGTTGTTGAGA had a TetR repression strength of 0.27.

As to TCCCGCTCAGTTATAGAGA, the TetR repression strength was 0.764.

In turn, TCCCGCATAGTGGGCGAGA gave a TetR repression strength of 0.0241.

On to TCCCATCTAGTCAGGGAGA, for which the TetR repression strength is 0.305.

In turn, TCCCAAGTAGTTGTTGAGA returned a TetR repression strength of 0.101.

On to TCCCGTGTAGTGTAAGAGA, for which the TetR repression strength was found to be 0.196.

Sequence TCCCAGAAAGTAACCGAGA had a TetR repression strength of 0.466.

For the sequence TCCCCTGCAGTACAAGAGA, the TetR repression strength was found to be 0.345.

For TCCCTATCAGTCATAGAGA, the TetR repression strength was determined as 0.924.

On to TCCCGTATAGTGGAAGAGA, for which the TetR repression strength is 0.104.

Turning to TCCCCGAAAGTGGCAGAGA, the TetR repression strength was found to be 0.118.

Regarding TCCCGGCTAGTTCGTGAGA, the TetR repression strength is 0.327.

Sequence TCCCTTGGAGTCGGCGAGA came in with a TetR repression strength of 0.0727.

In the case of TCCCGACGAGTGGAGGAGA, the TetR repression strength was found to be 0.206.

Consider TCCCTATCAGTCCACGAGA, for which the TetR repression strength was 0.322.

The sequence TCCCTTCTAGTGTCCGAGA showed a TetR repression strength of 0.426.

Sequence TCCCTTGGAGTAGCAGAGA gave a TetR repression strength of 0.173.

Take TCCCGTGTAGTCGGTGAGA: the TetR repression strength stood at 0.331.

On to TCCCTGTAAGTAACTGAGA, for which the TetR repression strength stood at 0.334.

As to TCCCCATAAGTAGCGGAGA, the TetR repression strength worked out at 0.0461.

For TCCCGGCGAGTTCCGGAGA, the TetR repression strength was determined as 0.142.

Sequence TCCCGCCCAGTGGATGAGA came in with a TetR repression strength of 0.267.

In turn, TCCCAAAGAGTACCAGAGA registered a TetR repression strength of 0.169.

Sequence TCCCATTCAGTAGTTGAGA displayed a TetR repression strength of 0.503.

Take TCCCAGTGAGTTGCCGAGA: the TetR repression strength is 0.212.

The sequence TCCCGTGGAGTTACAGAGA showed a TetR repression strength of 0.141.

Sequence TCCCTCAGAGTAACTGAGA had a TetR repression strength of 0.313.

Sequence TCCCATTGAGTTTCGGAGA came in with a TetR repression strength of 0.15.

For the sequence TCCCAACAAGTTTTAGAGA, the TetR repression strength turned out to be 0.304.

Take TCCCTCAGAGTGTTCGAGA: the TetR repression strength was 0.159.

As for TCCCTATGAGTCGGGGAGA, the TetR repression strength is 0.292.

As to TCCCTTCCAGTTTAGGAGA, the TetR repression strength was 0.383.

The sequence TCCCCGCCAGTCTCGGAGA gave a TetR repression strength of 0.167.

For the sequence TCCCAGGCAGTGGAAGAGA, the TetR repression strength amounted to 0.285.

TCCCCTCGAGTGAGAGAGA registered a TetR repression strength of 0.148.

The sequence TCCCGTCAAGTATAGGAGA had a TetR repression strength of 0.218.

Consider TCCCCCAAAGTGACGGAGA, for which the TetR repression strength came to 0.104.

The sequence TCCCTGGGAGTATGGGAGA showed a TetR repression strength of 0.317.

For TCCCGTGCAGTATCGGAGA, the TetR repression strength is 0.104.

TCCCACGGAGTAGGCGAGA: the TetR repression strength turned out to be 0.0624.

For the sequence TCCCGCATAGTTCTAGAGA, the TetR repression strength was found to be 0.566.

As to TCCCGGCCAGTGCCTGAGA, the TetR repression strength turned out to be 0.412.

For TCCCCGAAAGTCTCGGAGA, the TetR repression strength worked out at 0.17.

Regarding TCCCGACAAGTTGCAGAGA, the TetR repression strength is 0.535.

TCCCATATAGTGGAAGAGA: the TetR repression strength was 0.281.

Sequence TCCCACCGAGTTGGGGAGA had a TetR repression strength of 0.297.

Regarding TCCCTTATAGTTCCTGAGA, the TetR repression strength turned out to be 0.355.

Consider TCCCAATCAGTTCCGGAGA, for which the TetR repression strength amounted to 0.363.

In turn, TCCCACTCAGTTTTTGAGA had a TetR repression strength of 0.368.

The sequence TCCCGGGGAGTTCTCGAGA had a TetR repression strength of 0.531.

TCCCAGTCAGTCACTGAGA: the TetR repression strength was 0.104.

As to TCCCGAGGAGTGCTGGAGA, the TetR repression strength is 0.432.

As for TCCCTGATAGTGTGGGAGA, the TetR repression strength turned out to be 0.24.

Consider TCCCAATGAGTGGTAGAGA, for which the TetR repression strength came to 0.192.

TCCCATTCAGTCATTGAGA yielded a TetR repression strength of 0.561.

Consider TCCCAGTTAGTCTTTGAGA, for which the TetR repression strength worked out at 0.334.

Regarding TCCCGCAGAGTGCGTGAGA, the TetR repression strength was 0.145.

Consider TCCCTTAGAGTACTGGAGA, for which the TetR repression strength was determined as 0.358.

Regarding TCCCAGATAGTTCGTGAGA, the TetR repression strength turned out to be 0.185.

Sequence TCCCAGTAAGTGGTCGAGA had a TetR repression strength of 0.172.

With TCCCGTTGAGTGGTAGAGA, the TetR repression strength came out at 0.222.

Turning to TCCCGGTTAGTCTTAGAGA, the TetR repression strength came out at 0.023.

The sequence TCCCGTATAGTCGATGAGA returned a TetR repression strength of 0.225.

On to TCCCAGGCAGTTGAGGAGA, for which the TetR repression strength is 0.216.

TCCCCTAGAGTTGAGGAGA: the TetR repression strength was 0.239.

Turning to TCCCACAAAGTTTGAGAGA, the TetR repression strength stood at 0.134.

In the case of TCCCTTCCAGTGCTTGAGA, the TetR repression strength came out at 0.316.

In turn, TCCCTCCCAGTGGAGGAGA came in with a TetR repression strength of 0.408.

In turn, TCCCACGTAGTCGCGGAGA registered a TetR repression strength of 0.0851.

In the case of TCCCAGTAAGTCCAGGAGA, the TetR repression strength was 0.249.

For TCCCTGATAGTAGACGAGA, the TetR repression strength was 0.0214.

On to TCCCATCCAGTTTACGAGA, for which the TetR repression strength stood at 0.406.

As for TCCCTGATAGTCAGGGAGA, the TetR repression strength amounted to 0.2.

Regarding TCCCTCCGAGTTGAAGAGA, the TetR repression strength was 0.183.

In the case of TCCCCAGGAGTTTGAGAGA, the TetR repression strength was found to be 0.232.

Sequence TCCCAGGAAGTGGTAGAGA came in with a TetR repression strength of 0.0816.

TCCCTTGTAGTTGGAGAGA gave a TetR repression strength of 0.0797.

In the case of TCCCCTGGAGTGGTTGAGA, the TetR repression strength is 0.242.

TCCCTTAGAGTCAGGGAGA gave a TetR repression strength of 0.163.

The sequence TCCCCATTAGTCGATGAGA gave a TetR repression strength of 0.513.

On to TCCCGGTTAGTAAGGGAGA, for which the TetR repression strength was 0.247.
